These results are taken from publication PMC4336329 (PLoS ONE, 2015).

In all, about 310,000 compounds went through this assay and about 2,200 (0.71%) showed an effect of 50% or more. Effects have a minus sign here. Some of the results follow.

Sequence of human ether-à-go-go-related gene (hERG) potassium channel (Q12809 whole entry, looked up): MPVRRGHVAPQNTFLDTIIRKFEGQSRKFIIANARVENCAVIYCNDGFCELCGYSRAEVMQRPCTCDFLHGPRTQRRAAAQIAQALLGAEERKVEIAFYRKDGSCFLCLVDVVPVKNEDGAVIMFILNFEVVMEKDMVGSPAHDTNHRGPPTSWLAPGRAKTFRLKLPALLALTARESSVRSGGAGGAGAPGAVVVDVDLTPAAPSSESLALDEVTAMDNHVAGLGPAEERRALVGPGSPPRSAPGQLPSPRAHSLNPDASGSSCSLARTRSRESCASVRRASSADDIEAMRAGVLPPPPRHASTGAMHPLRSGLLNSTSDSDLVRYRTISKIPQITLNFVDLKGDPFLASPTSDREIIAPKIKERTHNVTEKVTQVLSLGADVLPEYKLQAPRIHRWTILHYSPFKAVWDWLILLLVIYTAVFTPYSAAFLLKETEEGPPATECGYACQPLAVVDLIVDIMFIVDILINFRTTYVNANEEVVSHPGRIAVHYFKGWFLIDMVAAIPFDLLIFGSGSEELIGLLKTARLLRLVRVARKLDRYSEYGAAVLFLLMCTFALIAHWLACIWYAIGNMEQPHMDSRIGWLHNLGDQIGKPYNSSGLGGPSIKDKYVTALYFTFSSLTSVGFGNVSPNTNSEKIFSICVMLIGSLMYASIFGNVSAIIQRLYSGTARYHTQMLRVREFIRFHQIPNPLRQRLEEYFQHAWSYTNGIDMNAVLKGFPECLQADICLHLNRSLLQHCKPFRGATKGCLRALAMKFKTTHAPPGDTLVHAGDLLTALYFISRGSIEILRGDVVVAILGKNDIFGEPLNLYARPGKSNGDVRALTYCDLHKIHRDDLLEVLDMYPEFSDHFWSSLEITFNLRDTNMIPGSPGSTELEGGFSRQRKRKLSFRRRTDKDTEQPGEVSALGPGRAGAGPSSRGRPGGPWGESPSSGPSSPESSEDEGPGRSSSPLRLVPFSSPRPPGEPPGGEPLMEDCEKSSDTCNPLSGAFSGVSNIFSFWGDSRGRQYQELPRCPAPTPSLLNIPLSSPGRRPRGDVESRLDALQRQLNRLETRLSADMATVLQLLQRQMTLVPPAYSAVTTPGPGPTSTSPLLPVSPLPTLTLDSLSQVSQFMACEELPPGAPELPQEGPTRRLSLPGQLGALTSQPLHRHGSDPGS

This assay has as its target human ether-à-go-go-related gene (hERG) potassium channel (human, UniProt Q12809). Kind of assay: primary screen, population patch clamp on CHO cells stably expressing hERG.
With `C=CCn1c(N)c(C(=O)Nc2ccccc2)c2nc3ccccc3nc21`, the “hERG current change (%, negative = inhibition) at 1uM” value stood at 11.6%.
To `CCOc1ccccc1CNS(=O)(=O)c1cnc[nH]1` belongs 8.02%; to `Cc1nonc1C(=O)N/N=C/c1ccc([N+](=O)[O-])o1`, -12.9%.
`COc1ccc(/C(C)=N/NC(=O)CNC(=O)/C=C/c2ccccc2OC)cc1`: the “hERG current change (%, negative = inhibition) at 1uM” value stood at 7.47%.
With `O=C(CCCN1C(=O)/C(=C\c2ccccc2)SC1=S)Nc1ccc(O)cc1C(=O)O`, the “hERG current change (%, negative = inhibition) at 1uM” value is on record as 16%.
As for `Cc1ccc2nc(NC(=O)COC(=O)c3ccc(Br)o3)sc2c1`, the “hERG current change (%, negative = inhibition) at 1uM” value was 2.88%.
For `O=C(N/N=C/C(Cl)=C/c1ccccc1)c1ccccc1F`, the “hERG current change (%, negative = inhibition) at 1uM” value stood at 11.8%.
As for `CC(=O)N1CCC(=NNc2ccc(S(=O)(=O)N3CCOCC3)cc2[N+](=O)[O-])CC1`, the “hERG current change (%, negative = inhibition) at 1uM” value is on record as 0.897%.
For `CCN(CC(=O)Nc1ccc2c(c1)OCO2)CC(=O)Nc1ccccc1C(F)(F)F`, the “hERG current change (%, negative = inhibition) at 1uM” value was 3.75%.
For `CCCCCN1CSC(=S)N(Cc2ccccc2)C1`, the “hERG current change (%, negative = inhibition) at 1uM” value turned out to be 9.22%.
As for `Cc1cc(NC(=S)NC(=O)C2CC2)ccc1Br`, the “hERG current change (%, negative = inhibition) at 1uM” value was 7.39%.
`Cc1ncc(CN2CCCC(C(=O)Nc3ccc(-c4ccco4)cc3)C2)n1C` (stereo not shown): the “hERG current change (%, negative = inhibition) at 1uM” value is given as -5.82%.
As to `O=C(Cc1ccc([N+](=O)[O-])cc1)NNC(=O)c1cccs1`, the “hERG current change (%, negative = inhibition) at 1uM” value was 7.22%.
Turning to `COc1ccccc1N(CC(=O)Nc1ccc2c(c1)OCCO2)S(C)(=O)=O`, the “hERG current change (%, negative = inhibition) at 1uM” value worked out at 8.09%.
With `c1csc(-c2nc(N3CCOCC3)c3ccccc3n2)c1`, the “hERG current change (%, negative = inhibition) at 1uM” value is listed as 5.11%.
Turning to `CCCOc1ccc(Oc2nc(-c3ccncc3)nc3ccccc23)cc1`, the “hERG current change (%, negative = inhibition) at 1uM” value amounted to 6.24%.
For the compound `CC1CCN(S(=O)(=O)c2cc3c4c(c2)CCN4C(=O)CC3)CC1`, the “hERG current change (%, negative = inhibition) at 1uM” value is reported as -15.7%.
In the case of `C#CCn1ccc(O)c(Cc2c(F)cccc2Cl)c1=O`, the “hERG current change (%, negative = inhibition) at 1uM” value is 8.94%.
As to `CCOc1cccc(-c2c(C(=O)N/N=C/c3c(F)cccc3Cl)nnn2-c2nonc2N)c1`, the “hERG current change (%, negative = inhibition) at 1uM” value worked out at 13.6%.
Regarding `O=P(Nc1cccc(F)c1)(Oc1ccccc1F)Oc1ccccc1F`, the “hERG current change (%, negative = inhibition) at 1uM” value was determined as 11.2%.
Regarding `COc1ccc(N2CC(C(=O)NCc3ccccc3)CC2=O)cc1` (stereo not shown), the “hERG current change (%, negative = inhibition) at 1uM” value turned out to be 10.7%.
`Cc1c(NC(=O)CSc2ncn[nH]2)c(=O)n(-c2ccccc2)n1C`: the “hERG current change (%, negative = inhibition) at 1uM” value turned out to be 19.7%.
To `C=CCN(c1ccccc1)S(=O)(=O)c1cc2c(cc1C)NC(=O)CO2` belongs 0.659%; to `CS(=O)(=O)N(CC(=O)Nc1ccc(F)c(F)c1)c1cccc([N+](=O)[O-])c1`, -3.37%; to `COc1ccc(Cl)cc1NC(=O)CSc1nc(N2CCCCC2)nc(N2CCCCC2)n1`, 8.36%.
For `Cn1c(SCC(=O)OC2CCCCC2)nnc1-c1ccco1`, the “hERG current change (%, negative = inhibition) at 1uM” value was 9%.
For `C/C=C/COC(=O)C1=C(C)NC(=O)NC1c1ccc2c(c1)OCO2` (stereo not shown), the “hERG current change (%, negative = inhibition) at 1uM” value was 14.4%.
As to `O=C(N/N=C/c1ccc(F)cc1)c1cc(-c2ccco2)nc2ccccc12`, the “hERG current change (%, negative = inhibition) at 1uM” value was 8.34%.
In the case of `CCN(CC)C(=O)CSc1nnc(-c2ccc(S(=O)(=O)N3CCOCC3)cc2)n1C`, the “hERG current change (%, negative = inhibition) at 1uM” value is 13.8%.
Turning to `O=C(NC(=S)N1CCCc2ccccc21)c1ccc(Cl)cc1`, the “hERG current change (%, negative = inhibition) at 1uM” value came to 5.9%.
The value for `N#CC(C(=O)Nc1ccccc1)=C1CCCCC1` was 14.4%; that for `N[C@@H](Cc1ccc(O)cc1)C(=O)Nc1ccc2ccccc2c1` was 5.28%; that for `Cc1ccc(/C=N/NC(=O)c2cccc([N+](=O)[O-])c2)o1` was 2.3%.
With `CCN(C(=O)COC(=O)CCc1ccccc1)c1ccccc1`, the “hERG current change (%, negative = inhibition) at 1uM” value is given as 13.6%.
In the case of `Cc1ccccc1N1CCN(S(=O)(=O)N(C)C)CC1`, the “hERG current change (%, negative = inhibition) at 1uM” value was 3.07%.
As for `CC1CCCCN1C(=O)c1ccc(Br)o1` (stereo not shown), the “hERG current change (%, negative = inhibition) at 1uM” value amounted to 8.55%.
With `COc1ccc(/C=C(\NC(=O)c2ccc(OC)cc2)C(=O)N2CCCCC2)cc1`, the “hERG current change (%, negative = inhibition) at 1uM” value came to 7.74%.
In the case of `O=C(CSc1nnc2ccc(-c3ccncc3)nn12)Nc1ccc(F)cc1`, the “hERG current change (%, negative = inhibition) at 1uM” value is -2.46%.
For `CC1CC(C)CN(C(=O)COc2ccc([N+](=O)[O-])cc2Cl)C1` (stereo not shown), the “hERG current change (%, negative = inhibition) at 1uM” value is reported as 15.9%.
Take `COCCN(CC(=O)Nc1cccc(C)c1C)C(=O)c1oc2c(Cl)cccc2c1C`: the “hERG current change (%, negative = inhibition) at 1uM” value is recorded as -4.32%.
For the compound `COc1ccccc1N(CC(O)CN(c1ccccc1)S(C)(=O)=O)S(=O)(=O)c1ccccc1` (stereo not shown), the “hERG current change (%, negative = inhibition) at 1uM” value turned out to be 10.3%.
On to `N#CCCN(C(=O)COC(=O)c1ccc(S(=O)(=O)Nc2ccccc2)cc1)c1ccccc1`, for which the “hERG current change (%, negative = inhibition) at 1uM” value came out at 5.89%.
For `CC(C)CN1C(=O)CC(Sc2ccccc2C(=O)O)C1=O` (stereo not shown), the “hERG current change (%, negative = inhibition) at 1uM” value is reported as 4.67%.
On to `COc1ccc(C2(CNC(=O)Cc3ccccc3)CCCC2)cc1OC`, for which the “hERG current change (%, negative = inhibition) at 1uM” value worked out at 12.7%.
On to `O=C(CCN1C(=O)c2ccccc2S1(=O)=O)N1CCN(c2ccccc2F)CC1`, for which the “hERG current change (%, negative = inhibition) at 1uM” value turned out to be 8.49%.
As to `C/C(=N/NC(=O)CSc1nc2ccccc2n1C)c1ccc(O)cc1`, the “hERG current change (%, negative = inhibition) at 1uM” value stood at 15.3%.
For the compound `COc1ccc(C(=O)N2CC3(CC(c4cccc(NC(=O)COc5ccc(Cl)cc5)c4)=NO3)C[C@@H]2C(N)=O)cc1` (stereo partly shown), the “hERG current change (%, negative = inhibition) at 1uM” value was found to be 3.45%.
The value for `Cc1cc(NC(=O)CCC(=O)N(c2ccccc2)C(C(=O)NC2CCCC2)c2ccncc2)no1` (stereo not shown) was 9.34%.
With `Cc1cc(C)nc(NN=C(c2ccccc2)c2ccccc2)n1`, the “hERG current change (%, negative = inhibition) at 1uM” value is reported as -0.703%.
The value for `CCCCCn1c(N(C)Cc2ccccc2)nc2c1c(=O)[nH]c(=O)n2C` was -2.2%; that for `Cc1ccccc1C(=O)Oc1cc(N)n(S(=O)(=O)c2ccccc2)n1` was 2.35%.
As to `CCOc1ccc(S(=O)(=O)N2CCN(C(=O)c3cc([N+](=O)[O-])ccc3N3CCOCC3)CC2)cc1`, the “hERG current change (%, negative = inhibition) at 1uM” value is on record as -3.26%.
As to `C=CCN(CC=C)C(=O)Nc1ccc(OCC)cc1`, the “hERG current change (%, negative = inhibition) at 1uM” value is 10.1%.
With `Cc1[nH]c(=O)c(Cc2ccccc2)c(O)c1C#N`, the “hERG current change (%, negative = inhibition) at 1uM” value is recorded as 12.5%.
As for `C#Cc1cccc(C(=O)NC2CCCN(C3Cc4ccccc4C3)C2)c1` (stereo not shown), the “hERG current change (%, negative = inhibition) at 1uM” value is reported as -32.4%.
The value for `CCN(CC)c1nc2ccccc2nc1C(C#N)C(=O)NCCCOC` (stereo not shown) was -0.057%.
For `CC1(C)CC2(CCO1)OC(=O)CC2C(=O)Nc1cccc2ccccc12` (stereo not shown), the “hERG current change (%, negative = inhibition) at 1uM” value stood at 17.3%.
In the case of `CN(c1ccccc1)S(=O)(=O)c1cccc(NC(=O)CN2CCc3ccccc3C2)c1`, the “hERG current change (%, negative = inhibition) at 1uM” value amounted to 5.27%.
For `Cc1cc(C)n2nc(-c3ccccc3)c(-c3ccccc3)c2n1`, the “hERG current change (%, negative = inhibition) at 1uM” value came out at 12.6%.
Turning to `CN(CCOc1ccccc1)S(=O)(=O)c1ccccc1C#N`, the “hERG current change (%, negative = inhibition) at 1uM” value came to 3.71%.
The value for `CCN(C(=O)COC(=O)c1ccccc1NC(=O)c1ccco1)C1CCS(=O)(=O)C1` (stereo not shown) was -29%; that for `COc1cc(CN(C(=S)NCC(=O)N2CCCC2)C2CCCC2)cc(OC)c1OC` was 8.17%.
Turning to `FC(F)(F)c1cc(-c2ccc(Cl)cc2)nc(NCc2cccnc2)n1`, the “hERG current change (%, negative = inhibition) at 1uM” value was determined as 6.44%.
On to `Cc1ccnc(Nc2nc(-c3ccc(O)cc3O)cs2)c1`, for which the “hERG current change (%, negative = inhibition) at 1uM” value came out at 9.73%.
On to `CN1CCN(CCCN2c3ccccc3Sc3ccc(C(F)(F)F)cc32)CC1.Cl`, for which the “hERG current change (%, negative = inhibition) at 1uM” value was 8.15%.
On to `CCNC(=O)NC(=O)c1csc([N+](=O)[O-])c1`, for which the “hERG current change (%, negative = inhibition) at 1uM” value amounted to 12.9%.
As for `Cc1cc(C)c(C)c(OCCCCN(C)Cc2ccccc2)c1.O=C(O)C(=O)O`, the “hERG current change (%, negative = inhibition) at 1uM” value was found to be 21.1%.
Take `COc1ccc(OC)c(NC(=O)NC2CCCc3ccccc32)c1` (stereo not shown): the “hERG current change (%, negative = inhibition) at 1uM” value is reported as 2.22%.
For the compound `Cc1ccc(C(=O)CSc2nnc(-c3ccco3)n2CC2CCCO2)cc1` (stereo not shown), the “hERG current change (%, negative = inhibition) at 1uM” value stood at 7.46%.
Turning to `Cc1cc2nccc(-c3ccc(OCCCF)cc3)n2n1`, the “hERG current change (%, negative = inhibition) at 1uM” value is -1.78%.
The value for `COc1ccc(C(=O)NCCc2nnc3ccc(SCC(=O)N4CCCC4)nn23)cc1` was 16.2%.
Take `Cc1nn2c3ccccc3n(CC(=O)c3cccs3)c2nc1=O`: the “hERG current change (%, negative = inhibition) at 1uM” value is reported as 7.17%.
With `O=C(Nc1ccccc1)Nc1ccc2ncoc2c1`, the “hERG current change (%, negative = inhibition) at 1uM” value worked out at 15.2%.
Take `COc1cc([N+](=O)[O-])ccc1NC(=O)CCN1C(=O)C2C3CCC(C3)C2C1=O` (stereo not shown): the “hERG current change (%, negative = inhibition) at 1uM” value is 8.29%.
In the case of `O=S(=O)(Nc1nccs1)c1ccc(Nc2nnc(-c3ccccc3)c3ccccc23)cc1`, the “hERG current change (%, negative = inhibition) at 1uM” value is given as 15.3%.
Regarding `CC1CC(C)CN(S(=O)(=O)c2ccc(C(C)(C)C)cc2)C1` (stereo not shown), the “hERG current change (%, negative = inhibition) at 1uM” value was 4.82%.
To `CC1(C)CC(NC(=O)C(C)(C)Oc2ccc(Cl)cc2)CC(C)(C)N1` belongs 15%; to `CC1CCCCN1C(=O)c1ccc(NC(=O)c2ccccc2Cl)cc1` (stereo not shown), 14.2%; to `O=C(OCC(=O)c1cccs1)C1=COCCO1`, 12.7%.
Consider `O=C(CSc1nnc(CNC(=O)c2c(F)cccc2Cl)o1)Nc1ccc2c(c1)OCCO2`, for which the “hERG current change (%, negative = inhibition) at 1uM” value came to 16.9%.
Regarding `CCN1CCN(c2ccc(S(=O)(=O)N3CCCC3)cn2)CC1`, the “hERG current change (%, negative = inhibition) at 1uM” value was found to be 12.8%.
Regarding `O=c1oc2ccccc2cc1-c1ccc(O)cc1`, the “hERG current change (%, negative = inhibition) at 1uM” value is listed as 13.9%.
For the compound `Cc1ccc(OCC(=O)NC(=S)Nc2ccc(Br)cn2)cc1C`, the “hERG current change (%, negative = inhibition) at 1uM” value was 3.96%.
As to `Cc1ccc(NC(=O)CCC(=O)NNC(=O)C(c2ccccc2)c2ccccc2)c(C)c1`, the “hERG current change (%, negative = inhibition) at 1uM” value came to 14.2%.
Regarding `O=C(c1cc2cc(Cl)ccc2[nH]1)N1CCC2(CC1)OCCO2`, the “hERG current change (%, negative = inhibition) at 1uM” value amounted to 2.47%.
To `CC1(c2ccc(OC(F)F)cc2)NC(=O)N(CC(=O)Nc2ccc(S(N)(=O)=O)cc2)C1=O` (stereo not shown) belongs 17.9%; to `Cc1ccc(OCc2nnnn2-c2ccccc2)cc1`, 3.75%.
The value for `Cc1cccc(-c2cc3nc(-c4ccccc4)cc(=O)n3[nH]2)c1` was 10.9%.
